The list shows a part of the results.
Columns and labels:
Assay in all cases: glycan array binding signal (z-score within array); higher = stronger binding
Details in all cases: glycan notation: IUPAC condensed, linker removed; mutation: E41A
[1] = biological target: Neu5Ac(a2-6)Gal(b1-4)GlcNAc(b1-2)Man(a1-3)[Man(a1-6)]Man(b1-4)GlcNAc(b1-4)GlcNAc
Outline: (§1)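 Glycan array data were curated from 3228 arrays in the Consortium for Functional Glycomics database and kept only where the protein sequence was available. Glycan names were converted to IUPAC-condensed notation, and columns mapping to the same glycan were averaged. The binding signal is a within-array Z-score, averaged across arrays of the same protein sequence at different concentrations or buffers and across linkers. Negative Z-scores can be read as non-binding.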

[2] = biological target: Neu5Ac(a2-6)Gal(b1-4)GlcNAc(b1-2)Man(a1-3)[Neu5Ac(a2-3)Gal(b1-4)GlcNAc(b1-2)Man(a1-6)]Man(b1-4)GlcNAc(b1-4)GlcNAc
Outline: as §1

[3] = biological target: Neu5Ac(a2-6)Gal(b1-4)GlcNAc(b1-2)Man(a1-3)[Neu5Ac(a2-6)Gal(b1-4)GlcNAc(b1-2)Man(a1-6)]Man(b1-4)GlcNAc(b1-4)GlcNAc
Outline: as §1

[4] = biological target: Neu5Ac(a2-6)Gal(b1-4)GlcNAc(b1-2)Man(a1-3)[Neu5Ac(a2-6)Gal(b1-4)GlcNAc(b1-2)Man(a1-6)]Man(b1-4)GlcNAc(b1-4)[Fuc(a1-6)]GlcNAc
Outline: as §1

[5] = biological target: Neu5Ac(a2-6)Gal(b1-4)GlcNAc(b1-2)Man(a1-6)Man(b1-4)GlcNAc(b1-4)GlcNAc
Outline: as §1

[6] = biological target: Neu5Ac(a2-6)Gal(b1-4)GlcNAc(b1-2)Man(a1-6)[Gal(b1-4)GlcNAc(b1-2)Man(a1-3)]Man(b1-4)GlcNAc(b1-4)GlcNAc
Outline: as §1

[7] = biological target: Neu5Ac(a2-6)Gal(b1-4)GlcNAc(b1-2)Man(a1-6)[GlcNAc(b1-2)Man(a1-3)]Man(b1-4)GlcNAc(b1-4)GlcNAc
Outline: as §1

[8] = biological target: Neu5Ac(a2-6)Gal(b1-4)GlcNAc(b1-2)Man(a1-6)[Man(a1-3)]Man(b1-4)GlcNAc(b1-4)GlcNAc
Outline: as §1

[9] = biological target: Neu5Ac(a2-6)Gal(b1-4)GlcNAc(b1-2)[Neu5Ac(a2-6)Gal(b1-4)GlcNAc(b1-4)]Man(a1-3)[GlcNAc(b1-4)][Neu5Ac(a2-6)Gal(b1-4)GlcNAc(b1-2)[Neu5Ac(a2-6)Gal(b1-4)GlcNAc(b1-6)]Man(a1-6)]Man(b1-4)GlcNAc(b1-4)GlcNAc
Outline: as §1

[10] = biological target: Neu5Ac(a2-6)Gal(b1-4)GlcNAc(b1-2)[Neu5Ac(a2-6)Gal(b1-4)GlcNAc(b1-4)]Man(a1-3)[GlcNAc(b1-4)][Neu5Ac(a2-6)Gal(b1-4)GlcNAc(b1-4)Man(a1-6)]Man(b1-4)GlcNAc(b1-4)GlcNAc
Outline: as §1

[11] = biological target: Neu5Ac(a2-6)Gal(b1-4)GlcNAc(b1-2)[Neu5Ac(a2-6)Gal(b1-4)GlcNAc(b1-6)]Man(a1-6)[Neu5Ac(a2-6)Gal(b1-4)GlcNAc(b1-2)Man(a1-3)][GlcNAc(b1-4)]Man(b1-4)GlcNAc(b1-4)GlcNAc
Outline: as §1

[12] = biological target: Neu5Ac(a2-6)Gal(b1-4)GlcNAc(b1-3)Gal(b1-3)GlcNAc
Outline: as §1

[13] = biological target: Neu5Ac(a2-6)Gal(b1-4)GlcNAc(b1-3)Gal(b1-4)GlcNAc
Outline: as §1

[14] = biological target: Neu5Ac(a2-6)Gal(b1-4)GlcNAc(b1-3)Gal(b1-4)GlcNAc(b1-2)Man(a1-3)[Neu5Ac(a2-6)Gal(b1-4)GlcNAc(b1-3)Gal(b1-4)GlcNAc(b1-2)Man(a1-6)]GalNAc
Outline: as §1

[15] = biological target: Neu5Ac(a2-6)Gal(b1-4)GlcNAc(b1-3)Gal(b1-4)GlcNAc(b1-3)Gal(b1-4)GlcNAc
Outline: as §1

[16] = biological target: Neu5Ac(a2-6)Gal(b1-4)GlcNAc(b1-3)Gal(b1-4)GlcNAc(b1-3)Gal(b1-4)GlcNAc(b1-2)Man(a1-3)[Neu5Ac(a2-6)Gal(b1-4)GlcNAc(b1-3)Gal(b1-4)GlcNAc(b1-3)Gal(b1-4)GlcNAc(b1-2)Man(a1-6)]GalNAc
Outline: as §1

[17] = biological target: Neu5Ac(a2-6)Gal(b1-4)GlcNAc(b1-3)Gal(b1-4)GlcNAc(b1-3)GalNAc
Outline: as §1

[18] = biological target: Neu5Ac(a2-6)Gal(b1-4)GlcNAc(b1-3)Gal(b1-4)GlcNAc(b1-3)[Neu5Ac(a2-6)Gal(b1-4)GlcNAc(b1-3)Gal(b1-4)GlcNAc(b1-6)]GalNAc
Outline: as §1

[19] = biological target: Neu5Ac(a2-6)Gal(b1-4)GlcNAc(b1-3)Gal(b1-4)GlcNAc(b1-6)[Gal(b1-3)]GalNAc
Outline: as §1

[20] = biological target: Neu5Ac(a2-6)Gal(b1-4)GlcNAc(b1-3)Gal(b1-4)[Fuc(a1-3)]GlcNAc(b1-3)Gal(b1-4)[Fuc(a1-3)]GlcNAc
Outline: as §1

[21] = biological target: Neu5Ac(a2-6)Gal(b1-4)GlcNAc(b1-3)GalNAc
Outline: as §1

[22] = biological target: Neu5Ac(a2-6)Gal(b1-4)GlcNAc(b1-3)[Neu5Ac(a2-6)Gal(b1-4)GlcNAc(b1-6)]GalNAc
Outline: as §1

[23] = biological target: Neu5Ac(a2-6)Gal(b1-4)GlcNAc(b1-6)GalNAc
Outline: as §1

[24] = biological target: Neu5Ac(a2-6)Gal(b1-4)GlcNAc(b1-6)[Gal(b1-3)GlcNAc(b1-3)]Gal(b1-4)Glc
Outline: as §1

[25] = biological target: Neu5Ac(a2-6)Gal(b1-4)GlcNAc(b1-6)[Gal(b1-3)]GalNAc
Outline: as §1

[26] = biological target: Neu5Ac(a2-6)Gal(b1-4)GlcNAc6S
Outline: as §1

Neu5Ac(a2-6)GalNAc = biological target: Neu5Ac(a2-6)GalNAc
Outline: as §1

[27] = biological target: Neu5Ac(a2-6)GalNAc(b1-4)GlcNAc
Outline: as §1

[28] = biological target: Neu5Ac(a2-6)GalNAc(b1-4)GlcNAc6S
Outline: as §1

[29] = biological target: Neu5Ac(a2-6)GlcNAc(b1-4)GlcNAc
Outline: as §1

[30] = biological target: Neu5Ac(a2-6)GlcNAc(b1-4)GlcNAc(b1-4)GlcNAc
Outline: as §1

B1: CVN-E41G (protein)
chain: MHHHHHHENLYFQSGNFSQACYNSAIQGSVLTSTCIRTNGGYNTSSIDLNSVIANVDGSLKWQGSNFIETCRNTQLAGSSELAAECKTRAQQFVSTKINLDDHIAAIDGTLKYE
glycan array binding signal (z-score) [1]: -0.209
glycan array binding signal (z-score) [2]: -0.216
glycan array binding signal (z-score) [3]: -0.146
glycan array binding signal (z-score) [4]: -0.196
glycan array binding signal (z-score) [5]: -0.221
glycan array binding signal (z-score) [6]: -0.201
glycan array binding signal (z-score) [7]: -0.069
glycan array binding signal (z-score) [8]: -0.229
glycan array binding signal (z-score) [9]: -0.197
glycan array binding signal (z-score) [10]: -0.198
glycan array binding signal (z-score) [11]: -0.176
glycan array binding signal (z-score) [12]: -0.152
glycan array binding signal (z-score) [13]: -0.22
glycan array binding signal (z-score) [14]: -0.159
glycan array binding signal (z-score) [15]: -0.211
glycan array binding signal (z-score) [16]: -0.108
glycan array binding signal (z-score) [17]: -0.2
glycan array binding signal (z-score) [18]: 0.108
glycan array binding signal (z-score) [19]: -0.172
glycan array binding signal (z-score) [20]: 0.069
glycan array binding signal (z-score) [21]: -0.219
glycan array binding signal (z-score) [22]: -0.21
glycan array binding signal (z-score) [23]: -0.018
glycan array binding signal (z-score) [24]: -0.189
glycan array binding signal (z-score) [25]: -0.171
glycan array binding signal (z-score) [26]: -0.215
glycan array binding signal (z-score) (Neu5Ac(a2-6)GalNAc): -0.237
glycan array binding signal (z-score) [27]: -0.229
glycan array binding signal (z-score) [28]: -0.144
glycan array binding signal (z-score) [29]: -0.234
glycan array binding signal (z-score) [30]: -0.136

— the supplement of paper PMC8728848
